Values joined by “and” are separate entries in the source; they are usually repeats but may differ in a detail not shown here. Equal values may be shown once. In all, about 420,000 compounds went through this assay and about 64,000 (15%) were called active. Inconclusive results, whose numbers are uncertain, are shown with a selection of clear calls. The call rests on the fitted dose curve; in most records, active means well fitted inhibition curve with a large enough effect; inconclusive means small, poorly fitted or top-dose-only effect; inactive means flat fitted curve, though single readings scatter. Potencies of inconclusive entries are doubtful fits and often do not repeat.
Test: qHTS for Inhibitors of human tyrosyl-DNA phosphodiesterase 1 (TDP1): qHTS in cells in absence of CPT; further: nearly all actives have a fitted effect of over 55% in size
Conditions: DT40 Tdp1-/- hTDP1 cells, no CPT, ATP luminescence, 48 h; series mostly up to 46.2 µM
Method in brief: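 Readout: luminescence from CellTiter-Glo after 30 min in the dark at RT. Cells: DT40 Tdp1-/- with stable hTDP1, 400/well. Exposure: compounds alone, ≥48 hr, 37 °C.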
In the case of `CC1CCCN(S(=O)(=O)c2ccc(NC(=O)C3CC(=O)N(c4ccccc4)C3)cc2)C1` (stereo not drawn), the Potency was inconclusive: 16.4 µM [inhibitor, single point]. In the case of `CN(C)C=Nc1ncc2c([nH]c3ccccc32)c1C#N`, the Potency was inconclusive: 13 µM [inhibitor, partial curve]. With `O=C1c2ccccc2C(Nc2ccc3c(c2)OCCO3)N1Cc1ccccc1` (stereo not drawn) the Potency was active: 16.4 µM. In the case of `Cc1ccc2c(CN3CCCc4ccccc43)cc(=O)oc2c1C`, the Potency was inconclusive: 29.1 µM [inhibitor, partial curve]. In the case of `O=C(COC(=O)CC1CC2CCC1C2)Nc1cccc(S(=O)(=O)NC2=NCCCCC2)c1` (stereo not drawn), the Potency was active: 29.1 µM. With `Cc1ccc(O)c(CNc2cnc3ccccc3c2)c1` the Potency was inconclusive: 25.9 µM [inhibitor, partial curve, poor fit]. With `COC(=O)c1sc2ncn(CC(=O)N(C)C3CCCCC3)c(=O)c2c1C` the Potency was inconclusive: 29.1 µM [inhibitor, single point]. In the case of `CCCn1c(=O)c(C(=O)Nc2cccc(C)c2)c(O)c2ccccc21`, the Potency was inconclusive: 29.1 µM [inhibitor, single point]. In the case of `O=C1NC(Cc2ccccc2)c2nc3cc(F)ccc3c(=O)n2-c2ncccc21` (stereo not drawn), the Potency was “inactive”. For `CCC(CC)=N/N=C/c1c(O)n(CC)c2cc(C3=NNC(=O)CC3)ccc12`, the Potency was active: 9.2 µM. In the case of `Cc1cccc2[nH]c(-c3ccc(NC(=O)c4ccco4)cc3)nc12`, the Potency was inconclusive: 20.6 µM [inhibitor, single point]. With `CCOC(=O)c1ccc(N2CCN(c3ccc(F)cc3)CC2)c(NC(=O)Nc2cccc(OC)c2)c1` the Potency was inconclusive: 23.1 µM [inhibitor, single point] and inconclusive: 18.4 µM [inhibitor, partial curve]. With `CCC(=O)N1CCc2cc(Br)cc(S(=O)(=O)CCC(=O)N3CCN(c4ccccc4OC)CC3)c21` the Potency was inconclusive: 29.1 µM [inhibitor, single point]. With `COc1cccc(/C=N/Nc2nn3cnnc3c3ccccc23)c1O` the Potency was active: 1.16 µM. For `Cc1cc2nc(N)sc2cc1C`, the Potency was inconclusive: 10.3 µM [inhibitor, partial curve]. In the case of `O=C1c2cccnc2C(=O)N1Cc1ccc(F)cc1`, the Potency was “inactive”. In the case of `Cc1ccc(-c2csc3ncnc(Oc4ccc5c(C)cc(=O)oc5c4)c23)cc1`, the Potency was inconclusive: 23.1 µM [inhibitor, single point]. With `CCOc1ccc(Oc2c(/C=N/NC(C)=O)c(C)nn2-c2ccccc2)cc1` the Potency was inconclusive: 20.6 µM [inhibitor, single point]. For `COc1ccccc1N1CCN(S(=O)(=O)c2ccc3[nH]c4c(c3c2)CCCC4)CC1`, the Potency was inconclusive: 23.1 µM [inhibitor, single point]. With `COc1ccc(/C=C\c2onc(C)c2S(=O)(=O)N2CCC(C(=O)Nc3ccc(Cl)cc3)CC2)cc1` the Potency was inconclusive: 3.66 µM [inhibitor, full curve]. With `Cc1ccc(CNC(=O)CSc2nnc(CNC(=O)c3ccc(F)cc3)o2)cc1` the Potency was “inactive”. For `O=C(Nc1ccc2oc(-c3ccncc3)nc2c1)c1ccc(Br)o1`, the Potency was “inactive”. With `COc1ccc2cc(CN(CCc3ccccc3)Cc3nnnn3Cc3ccco3)c(=O)[nH]c2c1` the Potency was active: 16.4 µM. For `CCOC(=O)c1cc(CC)sc1NC(=O)Cc1ccsc1`, the Potency was inconclusive: 25.9 µM [inhibitor, partial curve, poor fit]. With `CC(C)(C)OC(=O)N1Cc2ccccc2C[C@H]1C(=O)NC1CCCC1` the Potency was “inactive”. With `CCCn1nc(C(=O)Nc2ccc3c(c2)OCO3)c2ccccc2c1=O` the Potency was inconclusive: 20.6 µM [inhibitor, single point]. With `Oc1c(Cl)cc(Cl)cc1/C=C/c1ccc2cccc(O)c2n1` the Potency was inconclusive: 23.1 µM [inhibitor, single point]. With `Cc1nc(NC(=O)c2oc3ccccc3c2C)sc1C(=O)N(C)C` the Potency was inconclusive: 20.6 µM [inhibitor, partial curve]. In the case of `COc1ccc2nc3ccccc3nc2c1NC(=O)c1ccc(Cl)cc1Cl`, the Potency was inconclusive: 7.31 µM [inhibitor, partial curve]. In the case of `c1ccc(CN2CCN(CCOCCOc3ccc4c(c3)CCC4)CC2)cc1`, the Potency was active: 23.1 µM. In the case of `Cc1ccc(-n2ncc(C(=O)N3CCCCC3)c2C2CCN(C(=O)OC(C)(C)C)CC2)cc1C`, the Potency was inconclusive: 29.1 µM [inhibitor, single point]. With `COc1ccc(C(=O)N2CC(=O)Nc3ccc(C)cc3C2c2ccccc2)c(OC)c1` (stereo not drawn) the Potency was inconclusive: 25.9 µM [inhibitor, single point]. With `O=C(CSc1nc2ccc([N+](=O)[O-])cc2[nH]1)c1ccc2ccccc2c1` the Potency was inconclusive: 25.1 µM [inhibitor, single point]. With `O=C1C(Nc2ccccc2)=C(NS(=O)(=O)c2ccccc2)C(=O)c2ccccc21` the Potency was inconclusive: 9.2 µM [inhibitor, partial curve, poor fit]. For `CSc1ncccc1C(=O)Nc1cccc(S(=O)(=O)N2CCCCCC2)c1`, the Potency was active: 29.1 µM. In the case of `CCOC(=O)c1c2n(c3ccc(OC(C)=O)cc13)CCC2`, the Potency was inconclusive: 29.1 µM [inhibitor, single point]. For `COC(=O)c1ccc(CSCc2ccc(C(=O)OC)o2)o1`, the Potency was “inactive”. With `CCCN(CC1CC1)C(=O)COC(=O)c1[nH]c(C)c(C(=O)OCC)c1C` the Potency was inconclusive: 25.1 µM [inhibitor, single point]. In the case of `Cc1ccc(C2=NN(CC(=O)NCCCN(CC(C)C)CC(C)C)C(=O)CC2)cc1`, the Potency was inconclusive: 16.4 µM [inhibitor, partial curve]. For `CCCCc1nn2c(=O)cc(COC(=O)c3cccc(NC(=O)COc4ccccc4)c3)nc2s1`, the Potency was “inactive”. In the case of `C#CCNC(=O)C[C@@H]1C[C@@]2(C(=O)OCC)CCC=C2N(Cc2ccco2)C1=O`, the Potency was “inactive”. In the case of `CN1/C(=C\C(=O)c2cccc(S(=O)(=O)N3CCCCC3)c2)C(C)(C)c2ccccc21`, the Potency was inconclusive: 25.9 µM [inhibitor, single point]. For `Cc1cccn2c(=O)c3cc(S(=O)(=O)c4ccc(Br)cc4)c(=N)n(C4CCCCC4)c3nc12`, the Potency was inconclusive: 7.31 µM [inhibitor, full curve, poor fit].

From PubChem BioAssay AID686978 (National Center for Advancing Translational Sciences (NCATS), 2013)
Potency means the concentration at half of the fitted maximal effect; tags describe the fitted curve by direction and shape.
